Laboratory results reported in PMC9260856.
These are yes or no findings as the source states them, for the method shown. In cells and extracts the contact can be indirect. Some results given as binding are weak or reduced against the parent protein; the word gives no strength. Tags and fused reporters may be left off the sequences shown.

Assays:
[1] = target: T1, StrepII-FLAG-tagged ZXDA (SF-ZXDA), transfected in HEK293T cells (human) (UniProt P98168); experiment: co-IP; SF-tagged bait affinity-purified on Strep-Tactin Sepharose from whole-cell lysates of transfected HEK293T cells (150 mM NaCl, 50 mM Tris pH 7.5, 0.4% Triton X-100, Benzonase), desthiobiotin elution, immunoblot; MLN4924 before collecting where indicated
T1 sequence: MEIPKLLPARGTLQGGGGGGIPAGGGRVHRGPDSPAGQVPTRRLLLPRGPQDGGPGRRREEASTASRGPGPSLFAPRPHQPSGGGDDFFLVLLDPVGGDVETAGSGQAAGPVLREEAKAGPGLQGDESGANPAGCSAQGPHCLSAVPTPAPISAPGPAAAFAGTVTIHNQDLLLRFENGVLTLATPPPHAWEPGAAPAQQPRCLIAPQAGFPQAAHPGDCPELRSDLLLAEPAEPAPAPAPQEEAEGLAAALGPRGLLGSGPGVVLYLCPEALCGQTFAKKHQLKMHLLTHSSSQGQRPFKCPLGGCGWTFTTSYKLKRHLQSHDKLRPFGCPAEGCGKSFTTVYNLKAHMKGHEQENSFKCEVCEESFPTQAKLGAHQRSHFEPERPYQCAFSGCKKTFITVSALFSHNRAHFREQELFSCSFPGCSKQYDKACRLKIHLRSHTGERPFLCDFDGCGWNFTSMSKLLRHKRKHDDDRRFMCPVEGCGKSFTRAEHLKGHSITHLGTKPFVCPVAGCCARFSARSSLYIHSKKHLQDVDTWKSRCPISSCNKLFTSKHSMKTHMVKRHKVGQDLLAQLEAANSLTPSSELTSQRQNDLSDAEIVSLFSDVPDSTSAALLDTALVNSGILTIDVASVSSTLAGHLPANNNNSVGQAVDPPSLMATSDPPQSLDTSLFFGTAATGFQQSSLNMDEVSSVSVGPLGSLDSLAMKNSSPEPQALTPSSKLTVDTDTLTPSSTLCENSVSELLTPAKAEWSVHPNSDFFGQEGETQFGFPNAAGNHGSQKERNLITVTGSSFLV

[2] = target: T2, StrepII-FLAG-tagged FBXO38 mutant C206R (SF-FBXO38 C206R) (human) (UniProt Q6PIJ6); experiment: as above
T2 sequence: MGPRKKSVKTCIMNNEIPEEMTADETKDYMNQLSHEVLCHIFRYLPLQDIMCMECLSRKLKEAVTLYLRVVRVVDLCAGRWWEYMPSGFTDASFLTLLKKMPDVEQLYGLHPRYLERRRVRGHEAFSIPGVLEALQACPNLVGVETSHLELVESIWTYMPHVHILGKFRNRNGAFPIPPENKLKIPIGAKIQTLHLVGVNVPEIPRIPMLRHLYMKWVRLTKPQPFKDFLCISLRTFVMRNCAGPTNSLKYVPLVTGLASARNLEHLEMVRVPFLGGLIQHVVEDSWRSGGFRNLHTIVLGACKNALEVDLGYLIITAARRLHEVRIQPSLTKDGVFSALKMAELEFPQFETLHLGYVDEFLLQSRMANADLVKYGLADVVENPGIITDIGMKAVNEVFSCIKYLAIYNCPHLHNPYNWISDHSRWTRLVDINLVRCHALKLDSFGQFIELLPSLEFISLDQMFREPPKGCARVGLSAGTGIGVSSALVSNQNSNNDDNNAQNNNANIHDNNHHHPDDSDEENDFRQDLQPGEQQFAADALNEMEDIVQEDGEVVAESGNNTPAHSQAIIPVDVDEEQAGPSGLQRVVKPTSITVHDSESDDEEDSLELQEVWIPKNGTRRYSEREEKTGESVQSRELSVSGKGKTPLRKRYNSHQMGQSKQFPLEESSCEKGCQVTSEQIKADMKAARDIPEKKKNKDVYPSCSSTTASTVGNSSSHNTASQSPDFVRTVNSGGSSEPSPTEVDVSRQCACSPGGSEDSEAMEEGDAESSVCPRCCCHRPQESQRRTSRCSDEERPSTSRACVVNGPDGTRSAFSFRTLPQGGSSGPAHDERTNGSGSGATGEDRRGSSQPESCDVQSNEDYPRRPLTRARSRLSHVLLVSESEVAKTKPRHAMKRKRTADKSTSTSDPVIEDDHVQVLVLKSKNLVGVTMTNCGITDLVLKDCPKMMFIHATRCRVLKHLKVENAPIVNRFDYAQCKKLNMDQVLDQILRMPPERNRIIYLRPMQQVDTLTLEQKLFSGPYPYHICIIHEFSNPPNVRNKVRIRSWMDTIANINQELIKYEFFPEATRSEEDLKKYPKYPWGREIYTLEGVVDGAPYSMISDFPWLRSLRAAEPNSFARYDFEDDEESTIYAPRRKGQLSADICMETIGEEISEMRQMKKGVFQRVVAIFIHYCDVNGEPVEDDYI

binding [1]: binds
binding [2]: no binding
B1: centromere protein B (CENP-B), endogenous in HEK293T cells (protein, UniProt P07199 1-599)
chain: MGPKRRQLTFREKSRIIQEVEENPDLRKGEIARRFNIPPSTLSTILKNKRAILASERKYGVASTCRKTNKLSPYDKLEGLLIAWFQQIRAAGLPVKGIILKEKALRIAEELGMDDFTASNGWLDRFRRRHGVVSCSGVARARARNAAPRTPAAPASPAAVPSEGSGGSTTGWRAREEQPPSVAEGYASQDVFSATETSLWYDFLPDQAAGLCGGDGRPRQATQRLSVLLCANADGSEKLPPLVAGKSAKPRAGQAGLPCDYTANSKGGVTTQALAKYLKALDTRMAAESRRVLLLAGRLAAQSLDTSGLRHVQLAFFPPGTVHPLERGVVQQVKGHYRQAMLLKAMAALEGQDPSGLQLGLTEALHFVAAAWQAVEPSDIAACFREAGFGGGPNATITTSLKSEGEEEEEEEEEEEEEEGEGEEEEEEGEEEEEEGGEGEELGEEEEVEEEGDVDSDEEEEEDEESSSEGLEAEDWAQGVVEAGGSFGAYGAQEEAQCPTLHFLEGGEDSDSDSEEEDDEEEDDEDEDDDDDEEDGDEVPVPSFGEAMAYFAMVKRYLTSFPIDDRVQSHILHLEHDLVHVTRKNHARQAGVRGLGHQS
